According to the BET-seq Pho4 binding data (Le et al. 2018):
The list shows a part of the results. These are noisy estimates, calculated here from bound and input reads.

Each sequence was assayed against T1, Pho4 (S. cerevisiae) (UniProt P07270) (assay: relative binding free energy (BET-seq); higher = weaker binding). Conditions: reference: library average.
T1 sequence: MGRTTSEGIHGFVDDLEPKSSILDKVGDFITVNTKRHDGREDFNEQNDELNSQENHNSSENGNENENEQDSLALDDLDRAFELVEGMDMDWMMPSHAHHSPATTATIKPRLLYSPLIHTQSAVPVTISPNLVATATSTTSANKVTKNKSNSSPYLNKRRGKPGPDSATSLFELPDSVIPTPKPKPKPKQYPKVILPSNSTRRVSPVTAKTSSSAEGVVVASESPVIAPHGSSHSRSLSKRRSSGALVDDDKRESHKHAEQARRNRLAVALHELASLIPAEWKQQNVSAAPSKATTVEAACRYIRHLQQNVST

Sequence	relative binding free energy
GGTTTCACGTGGTAGC	0.92 kJ/mol
TGATACACGTGAGAGT	0.628 kJ/mol
TGCTTCACGTGGGGAA	0.502 kJ/mol
ATTAGCACGTGAAAGT	0.377 kJ/mol
GTTATCACGTGTGTGT	0.795 kJ/mol
TAGTTCACGTGGGTCT	1.17 kJ/mol
GCTCGCACGTGGTGTA	-0.586 kJ/mol
TTTACCACGTGTATAG	-0.0418 kJ/mol
TCGTGCACGTGGTGTC	-0.544 kJ/mol
GGGTACACGTGTAGCT	0.879 kJ/mol
TTTGGCACGTGAGTGC	0.795 kJ/mol
TGTCTCACGTGTTTGA	1 kJ/mol
GAGGTCACGTGTTTGT	0.502 kJ/mol
TGGAACACGTGGATGG	0.377 kJ/mol
GGTACCACGTGGCGGA	-0.126 kJ/mol
ACTCGCACGTGAGGGG	0.0837 kJ/mol
CGTTTCACGTGCTGTG	0.795 kJ/mol
TTAGGCACGTGTTATC	-0.628 kJ/mol
GAATTCACGTGTTGGC	1.13 kJ/mol
TGGAACACGTGGCGTA	0.293 kJ/mol
AATAGCACGTGTGCGT	-0.879 kJ/mol
GGGAGCACGTGTTCAG	-0.0418 kJ/mol
TACGTCACGTGTTTTG	0.0837 kJ/mol

Sequence	relative binding free energy
CGAAGCACGTGGGGTA	-1.38 kJ/mol
GCTTGCACGTGAGTCG	1.8 kJ/mol
AGGTGCACGTGGTAAG	-0.335 kJ/mol
GTGTGCACGTGGCTAT	-0.335 kJ/mol
GATTACACGTGATCGG	0.879 kJ/mol
TTAATCACGTGTCAGT	0.293 kJ/mol
GTTCTCACGTGTAGTT	1.42 kJ/mol
ATTGGCACGTGGAAAT	0.126 kJ/mol
GTGATCACGTGGGTGT	0.293 kJ/mol
ATTCACACGTGGGTGG	-0.293 kJ/mol
GACGTCACGTGGGCGG	0.0837 kJ/mol
GTGTTCACGTGGGCGC	0.586 kJ/mol
AGAGCCACGTGTGGGG	-0.92 kJ/mol
TTTGTCACGTGGTAGC	0.418 kJ/mol
TCTGGCACGTGATCGG	-0.0418 kJ/mol
GGTTTCACGTGGGTTT	1.59 kJ/mol
TTTAGCACGTGTCGGC	-0.126 kJ/mol
TTAAACACGTGGTGCG	-0.46 kJ/mol
TGGTACACGTGCTTAG	-0.418 kJ/mol
TCGTTCACGTGATTAT	0.92 kJ/mol
TATGCCACGTGGAATG	0.46 kJ/mol
GGATGCACGTGTGAGT	0.795 kJ/mol
TTTCGCACGTGTGGAA	0.879 kJ/mol

Sequence	relative binding free energy
GGTCGCACGTGGTGTA	-0.46 kJ/mol
TTTGGCACGTGGTCAC	-0.544 kJ/mol
TTGGTCACGTGTTTCT	0.753 kJ/mol
GGGCGCACGTGGTCGG	-0.46 kJ/mol
TGGTACACGTGTATTT	0.209 kJ/mol
ATGGGCACGTGGCGTC	-1.59 kJ/mol
TGTGGCACGTGTGCAT	-0.544 kJ/mol
GCGGTCACGTGTGGGC	0.753 kJ/mol
GCCGTCACGTGTTGTT	0.879 kJ/mol
TGAGTCACGTGTTGCG	0.711 kJ/mol
AATCACACGTGGGGGC	0.377 kJ/mol
GTTTTCACGTGGAGGC	1.09 kJ/mol
GTGGACACGTGAGCGC	1.46 kJ/mol
AATGTCACGTGCCGGG	-0.126 kJ/mol
TGTTCCACGTGGATGG	-0.209 kJ/mol
AGGTCCACGTGTTGTG	-0.126 kJ/mol
GTAGACACGTGCTTGG	-0.586 kJ/mol
TTGGTCACGTGTGTGT	1 kJ/mol
GTGCACACGTGGTTTA	0.0837 kJ/mol
GGCCTCACGTGGTGTG	0.795 kJ/mol
CGGCACACGTGGTGGG	-0.544 kJ/mol
TTAGCCACGTGGAGTA	-0.251 kJ/mol
CGCGGCACGTGAATGG	0.795 kJ/mol

Sequence	relative binding free energy
TGAATCACGTGGTATT	0.377 kJ/mol
GTTGTCACGTGAAATA	1.17 kJ/mol
TAAAACACGTGATGGG	1 kJ/mol
TGCTCCACGTGGGGTG	-0.879 kJ/mol
TCGTCCACGTGGAGTG	-0.126 kJ/mol
TGGGTCACGTGGCATC	0.502 kJ/mol
GATGGCACGTGTAGGG	0 kJ/mol
TCAGCCACGTGTTTGT	-0.0418 kJ/mol
TTGGTCACGTGGTAAT	0.502 kJ/mol
TTTTTCACGTGTGAAC	1.26 kJ/mol
GGTAACACGTGCATTT	0.46 kJ/mol
TGGGACACGTGGTTGC	-0.126 kJ/mol
CTAGTCACGTGTTTGT	0.167 kJ/mol
TGCGGCACGTGTGGGG	-0.251 kJ/mol
GAATTCACGTGTAATG	1.17 kJ/mol
TAGCGCACGTGGGATA	-0.753 kJ/mol
TTGGTCACGTGAGCGG	0.711 kJ/mol
GGTCTCACGTGGGCGG	0.46 kJ/mol
TCATGCACGTGTGGGG	0.126 kJ/mol
ATTTGCACGTGCAAGT	-0.335 kJ/mol
TTGTGCACGTGACAGT	0.167 kJ/mol
AGATACACGTGGTGTT	-0.293 kJ/mol
CTAGTCACGTGTAGGG	0 kJ/mol

Sequence	relative binding free energy
AGTATCACGTGGGTCT	-0.293 kJ/mol
TGAAACACGTGGTAAT	0.0418 kJ/mol
AATCACACGTGGGGTT	0.0418 kJ/mol
ATAGCCACGTGTGGTG	-0.335 kJ/mol
GGATGCACGTGTTTCT	0.837 kJ/mol
CTGTTCACGTGTATGC	1.8 kJ/mol
TGATTCACGTGGGAGC	0.879 kJ/mol
ATTGACACGTGGTAAG	-0.669 kJ/mol
GGGTTCACGTGGATTC	2.22 kJ/mol
TAATGCACGTGATTGT	0.753 kJ/mol
TTTAACACGTGTTAGT	-0.209 kJ/mol
CGTAACACGTGTGTGT	0.0418 kJ/mol
AAATGCACGTGAGAGT	1.17 kJ/mol
TTTTGCACGTGGATTT	0.502 kJ/mol
ACGGTCACGTGAGGAG	1.38 kJ/mol
TATAGCACGTGGGTTT	-0.586 kJ/mol
TTGGGCACGTGTCTCG	0.126 kJ/mol
GCATGCACGTGTGTGT	0.0837 kJ/mol
TTACGCACGTGTGTAT	-0.0837 kJ/mol
CTTTTCACGTGTAAAT	1.38 kJ/mol
TAATTCACGTGCAGTT	1.34 kJ/mol
TGTTGCACGTGCGGGA	-0.251 kJ/mol
TTGGACACGTGCGGGG	-0.167 kJ/mol
